The labels stand for the following.
B1: TEV protease; numbered along this chain (parent)
chain: MGESLFKGPRDYNPISSSICHLTNESDGHTTSLYGIGFGPFIITNKHLFRRNNGTLVVQSLHGVFKVKDTTTLQQHLVDGRDMIIIRMPKDFPPFPQKLKFREPQREERICLVTTNFQTKSMSSMVSDTSCTFPSGDGIFWKHWIQTKDGQCGSPLVSTRDGFIVGIHSASNFTNTNNYFTSVPKNFMELLTNQEAQQWVSGWRLNADSVLWGGHKVFMVKPEEPFQPVKEATQL

The assay covers variants of B1. Kind of assay: raw area under fraction-flipped curve 0-4 h after induction (AUC4h, not background-subtracted), DNA-recorder readout of cleavage of the substrate (dimensionless); higher = more cleavage of the substrate by the protease variant. The note with it: temperature: 34 °C; time window: 0-4 h after rhamnose induction.

Some of the results follow. The full chains were built here from the parent and the listed change. Inactive controls read about 0.05.
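Also: Bxb1 expression induced with 0.2% (w/v) L-rhamnose at OD600 near 0.5, cultures sampled hourly, flipped fraction per protease–substrate barcode pair counted by paired-end Illumina sequencing.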

On to MGESLFKGPRDYNPISSSICHLTNESDGHTTSLYGIGFGPFIITNKHLFRRNNGTLVVQSLHGVFKVKDTTTLQQHLVDGRDMIIIRMPKDFPPFPQKLKFREPQREERICLVTTNFQTKSMSSMVSDTSCTFPSGDGIFWKHWIQTKDGQCGSPLVSTRDGFIVGIHSASNFTNTNNYFTSVPKNFMELLTNQEAQQWVSDWRLNADSVLWGGHKVFMVKPEEPFQPVKEATQL [G202D], for which the “area with substrate ENLYDQS” value was determined as 0.0681, the “area with substrate ENLYEQS” value is 0.0596, the “area with substrate ENLYGQS” value turned out to be 0.055 and the “area with substrate ENLYKQS” value stood at 0.0673. The “area with substrate ENLYLQS” value turned out to be 0.0704, the “area with substrate ENLYMQS” value came to 0.0612, the “area with substrate ENLYNQS” value was found to be 0.0452 and the “area with substrate ENLYQQS” value worked out at 0.048. Moreover, the “area with substrate ENLYTQS” value is 0.0605.
In the case of MGESLFKGPRDYNPISSSICHLTNESDGHTTSLYGIGFGPFIITNKHLFRRNNGTLVVQSLHGVFKVKDTTTLQQHLVDGRDMIIIRMPKDFPPFPQKLKFREPQREERICLVTTNFQTKSMSSMVSDTSCTFPSGDGIFWKHWIQTKDGQCGSPTVSTRDGFIVGIHSASNFTNTNNYFTSVPKNFMELLTNQEAQQWVSGWRLNADSVLWGGHKVFMVKPEEPFQPVKEATQL [L156T], the “area with substrate ENLYDQS” value came out at 0.0574, the “area with substrate ENLYEQS” value is 0.0678, the “area with substrate ENLYGQS” value was found to be 0.051 and the “area with substrate ENLYHQS” value is 0.0596. For the same variant, the “area with substrate ENLYIQS” value is 0.112, the “area with substrate ENLYKQS” value worked out at 0.0622, the “area with substrate ENLYMQS” value is 0.073 and the “area with substrate ENLYNQS” value turned out to be 0.0593. The “area with substrate ENLYQQS” value is 0.0499, the “area with substrate ENLYRQS” value was found to be 0.0818, the “area with substrate ENLYSQS” value worked out at 0.063 and the “area with substrate ENLYVQS” value stood at 0.087. Moreover, the “area with substrate ENLYWQS” value worked out at 0.0703.
For MGESLFKGPRDYNPISSSICHLTNESDGHTTSLYGIGFGPFIITNKHLFRRNNGTLVVQSLHGVFKVKDTTTLQQHLVDGRDMIIIRMPKDFPPFPQKLKFREPQREERICLVTTNFQTKSMSSMVSDTSCTFPSGDGIFWKHWIQTKDGQCGSPLVSTRDGFIYGIHSASNFTNTNNYFTSVPKNFMELLTNQEAQQWVSGWRLNADSVLWGGHKVFMVKPEEPFQPVKEATQL [V165Y], the “area with substrate ENLYDQS” value turned out to be 0.0537, the “area with substrate ENLYGQS” value is 0.0557, the “area with substrate ENLYHQS” value worked out at 0.0601 and the “area with substrate ENLYIQS” value came out at 0.0369. The “area with substrate ENLYMQS” value worked out at 0.0512, the “area with substrate ENLYNQS” value came to 0.0579, the “area with substrate ENLYPQS” value was 0.058 and the “area with substrate ENLYRQS” value is 0.0569. Also, the “area with substrate ENLYSQS” value worked out at 0.0429, the “area with substrate ENLYVQS” value came out at 0.0536 and the “area with substrate ENLYWQS” value amounted to 0.0447.
Consider MGESLFKGPRDYNPISSSICHLTNESDGHTTSLYGIGFGPFIITNKHLFRRNNGTLVVQSLHGVFKVKDTTTLQQHLVDGRDMIIIRMPKDFPPFPQKLKFREPQREERICLVTTNFQTKSMSSMVSDTSCTFPSGDGIFWKHWIQTKDGQCGSPLVSTRDGFIVGIHSHSNFTNTNNYFTSVPKNFMELLTNQEAQQWVSGWRLNADSVLWGGHKVFMVKPEEPFQPVKEATQL [A170H], for which the “area with substrate ENLYDQS” value is 0.0872, the “area with substrate ENLYEQS” value was determined as 0.0681, the “area with substrate ENLYGQS” value was 0.0667 and the “area with substrate ENLYHQS” value worked out at 0.0621. The “area with substrate ENLYMQS” value amounted to 0.064, the “area with substrate ENLYNQS” value was found to be 0.0693, the “area with substrate ENLYPQS” value worked out at 0.0537 and the “area with substrate ENLYYQS” value was 0.0507.
Consider MGESLFKGPRDYNPISSSICHLTNESDGHTTSLYGIGFGPFIITNKHLFRRNNGTLVVQSLHGVFKVKDTTTLQQHLVDGRDMIIIRMPKDFPPFPQKLKFREPQREERICLVTTNFQTKSMSSMVSDTSCTFPSGDGIFWKHWIQTKDGQCGSPLVSTRDGFIVGIHEASNFTNTNNYFTSVPKNFMELLTNQEAQQWVSGWRLNADSVLWGGHKVFMVKPEEPFQPVKEATQL [S169E], for which the “area with substrate ENLYDQS” value worked out at 0.0722, the “area with substrate ENLYEQS” value was determined as 0.0584, the “area with substrate ENLYGQS” value turned out to be 0.0574 and the “area with substrate ENLYHQS” value came out at 0.0719. Moreover, the “area with substrate ENLYKQS” value was 0.0597, the “area with substrate ENLYLQS” value is 0.0546, the “area with substrate ENLYNQS” value was 0.0584 and the “area with substrate ENLYPQS” value came out at 0.0546. The “area with substrate ENLYQQS” value was 0.022, the “area with substrate ENLYRQS” value stood at 0.0571, the “area with substrate ENLYTQS” value is 0.0737 and the “area with substrate ENLYVQS” value came out at 0.0532. The “area with substrate ENLYWQS” value was determined as 0.0464.
For the variant MGESLFKGPRDYNPISSSICHLTNESDGHTTSLYGIGFGPFIITNKHLFRRNNGTLVVQSLHGVFKVKDTTTLQQHLVDGRDMIIIRMPKDFPPFPQKLKFREPQREERICLVTTNFQTKSMSSMVSDTSCTFPSGDGIFWKHWIQTKDGQCGSPLVSTRDGFIVGIHSASNFTNTNNYFTIVPKNFMELLTNQEAQQWVSGWRLNADSVLWGGHKVFMVKPEEPFQPVKEATQL [S182I], the “area with substrate ENLYDQS” value was determined as 0.0595, the “area with substrate ENLYEQS” value is 0.0625, the “area with substrate ENLYHQS” value was determined as 0.0698 and the “area with substrate ENLYIQS” value was 0.1. Moreover, the “area with substrate ENLYKQS” value amounted to 0.0565, the “area with substrate ENLYMQS” value is 0.0888, the “area with substrate ENLYNQS” value was 0.0595 and the “area with substrate ENLYPQS” value is 0.0746. Besides, the “area with substrate ENLYQQS” value is 0.0594, the “area with substrate ENLYTQS” value was 0.0734, the “area with substrate ENLYWQS” value came to 0.101 and the “area with substrate ENLYYQS” value is 0.0457.
Regarding MGESLFKGPRDYNPISSSICHLTNESDGHTTSLYGIGFGPFIITNKHLFRRNNGTLVVQSLHGVFKVKDTTTLQQHLVDGRDMIIIRMPKDFPPFPQKLKFREPQREERICLVTTNFQTKSMSSMVSDTSCTFPSGDGIFWKHWIQTKDGQCGSPLVSTRDGFIVGIHSASNFTNTNNYFTSVPKNFMELETNQEAQQWVSGWRLNADSVLWGGHKVFMVKPEEPFQPVKEATQL [L191E], the “area with substrate ENLYDQS” value amounted to 0.054, the “area with substrate ENLYEQS” value is 0.0638, the “area with substrate ENLYGQS” value amounted to 0.0585 and the “area with substrate ENLYHQS” value is 0.0605. Besides, the “area with substrate ENLYIQS” value was 0.0698, the “area with substrate ENLYLQS” value was determined as 0.0533, the “area with substrate ENLYMQS” value came to 0.0591 and the “area with substrate ENLYNQS” value came to 0.0517. The “area with substrate ENLYPQS” value was found to be 0.0612, the “area with substrate ENLYQQS” value is 0.0661, the “area with substrate ENLYRQS” value turned out to be 0.0577 and the “area with substrate ENLYSQS” value worked out at 0.055. Further, the “area with substrate ENLYWQS” value amounted to 0.0525 and the “area with substrate ENLYYQS” value stood at 0.0528.
Regarding MGESLFKGPRDYNPISSSICHLTNESDGHTTSLYGIGFGPFIITNKHLFRRNNGTLVVQSLHGVFKVKDTTTLQQHLVDGRDMIIIRMPKDFPPFPQKLKFREPQREERICLVTTNFQTKSMSSMVSDTSCTFPSGDGIFWKHWIQTKDGQCGSPLVSTRDGFIVGIHSASNFTNTNNYFTSVPKNFMELLTNYEAQQWVSGWRLNADSVLWGGHKVFMVKPEEPFQPVKEATQL [Q194Y], the “area with substrate ENLYDQS” value is 0.0522, the “area with substrate ENLYMQS” value came out at 0.0906, the “area with substrate ENLYNQS” value stood at 0.0422 and the “area with substrate ENLYPQS” value was 0.0619. Further, the “area with substrate ENLYRQS” value came out at 0.0548 and the “area with substrate ENLYWQS” value amounted to 0.0911.
Regarding MGESLFKGPRDYNPISSSICHLTNESDGHTTSLYGIGFGPFIITNKHLFRRNNGTLVVQSLHGVFKVKDTTTLQQHLVDGRDMIIIRMPKDFPPFPQKLKFREPQREERICLVTTNFQTKSMSSMVSDTSCTFPSGDGIFWKHWIQTKDGQCGSPLVSTRDGFIVGIHSASNFTNTNNYFTSVPHNFMELLTNQEAQQWVSGWRLNADSVLWGGHKVFMVKPEEPFQPVKEATQL [K185H], the “area with substrate ENLYDQS” value came out at 0.0711, the “area with substrate ENLYEQS” value was 0.0823, the “area with substrate ENLYKQS” value was 0.0248 and the “area with substrate ENLYNQS” value was determined as 0.0786. Also, the “area with substrate ENLYRQS” value is 0.0515 and the “area with substrate ENLYYQS” value amounted to 0.055.
For MGESLFKGPRDYNPISSSICHLTNESDGHTTSLYGIGFGPFIITNKHLFRRNNGTLVVQSLHGVFKVKDTTTLQQHLVDGRDMIIIRMPKDFPPFPQKLKFREPQREERICLVTTNFQTKSMSSMVSDTSCTFPSGDGIFWKHWIQTKDGQCGSPLVSSRDGFIVGIHSASNFTNTNNYFTSVPKNFMELLTNQEAQQWVSGWRLNADSVLWGGHKVFMVKPEEPFQPVKEATQL [T159S], the “area with substrate ENLYDQS” value came out at 0.0627, the “area with substrate ENLYEQS” value amounted to 0.0587, the “area with substrate ENLYGQS” value amounted to 0.057 and the “area with substrate ENLYIQS” value came out at 0.123. Further, the “area with substrate ENLYMQS” value came out at 0.0922, the “area with substrate ENLYNQS” value amounted to 0.072, the “area with substrate ENLYPQS” value amounted to 0.0841 and the “area with substrate ENLYVQS” value worked out at 0.129. Further, the “area with substrate ENLYWQS” value stood at 0.0633.

These data come from the supplement of paper PMC12217912.
